Recombinant human monoclonal antibodies (heavy:light variable regions). ELISA EC50 on the named antigen, from 10 µg/ml down; lower = stronger. No active / inactive call.
Target: SARS-CoV-2 Wuhan-Hu-1 spike receptor-binding domain
Assay: ELISA binding EC50; higher = weaker binding; ELISA of recombinant human antibody on coated antigen, from 10 µg/ml in fourfold dilutions; four-parameter fit.

Binder | ELISA binding EC50 [ng/mL]
C1039 (protein) chain 1: QVQLVQSGAEVKKPGASVKVSCKASGYTFTSHYMHWVRQAPGQGLEWMGIINPRTRYAQMFQGRVSMNRDTSTSTVYMELSSLTSEDTAVYYCAREGLGATAYFDYWGQGTLVTVSS chain 2: SYELTQPPSVSVAPGKTAGITCGGSDIGSKSVHWYQQKPGQAPVLVVYDDSDRPSGIPERFSGSNSGNTATLTISRVEAGDEADYYCQVWDSSSDPYVFGTGTKVSVL | 2.61
C1040 (protein) chain 1: QVQLVESGGGVVQPGRSLRLSCAASGFSFINYNMHWVRQAPGKGLEWVAVIWYDGSNKYYADSVKGRFTISRDNSKNTLYLQMNSLRVEDTAVYYCARDPAITEAEIDYWGQGTLVTVSS chain 2: DVVMTQSPLSLPVTLGQAASISCRSSQSLVHSDGNTYLNWFQQRPGQSPRRLIYRVSNRDSGVPDRFSASGSGTDFTLKISRVEAEDVGVYYCMQGTHWPWTFGQGTKVEIK | 2.08
C1041 (protein) chain 1: QVQLVQSGAEVKKPGASVKVSCKASGYTFSDHYIYWVRQAPGQGLEWMGIINPSAGSTSYAQKFQGRVTMTRDTSTSTVYMELSSLRSEDTAVYYCARDIVFVPATMAMDVWGLGTTVTVSS chain 2: EIVLTQSPATLSLSPGERATLSCRASQSVSRYLAWYQQKPGQAPRLLIYDASNRATGIPARFSGSGSGTDFTLTISSLEPEDFAVYYCQQRSNWLFTFGPGTKVDIK | 3.65
C1042 (protein) chain 1: QVQLVQSGAEVKKPGASVKVSCKASGYTFSDHYIYWVRQAPGQGLEWMGIINPSGGSTSYAQKFQGRVTMTRDTSTSTVYMELSSLKSEDTAVYYCSRDIVFVPATMAMDVWGQGTTVTVSS chain 2: EIVLTQSPATLSLSPGERATLSCRASQSVSRYLAWYQQKPGQAPRLLIYDASNRATGIPARFSGSGSGTDFTLTISSLEPEDFAVYYCQQRSNWLFTFGPGTKVDIK | 4.55
C1043 (protein) chain 1: EVQLVESGGGLVQPGRSLRLSCAASGFIFDNYAMHWVRQAPGKGLEWVSGISWNSDSIGYADSVKGRFTISRDNAKNSLYLQMSSLRAEDTALYYCAKDLLGNYYYYTLDVWGQGTTVTVSS chain 2: QSALTQPASVSGSPGQSITISCTGTSSDIGGNNYVSWYQQHPGKAPRLMIFDVSYRPSGVSNRFSGSKSGNTASLTISGLQAEDEADYYCISYTTSSTLGVFGGGTKLTVL | 2.77
C1044 (protein) chain 1: QVQLQESGPGLVKPSQTLSLTCTVSGGSISSGNYYLTWIRQPAGKGLEWIGHIYTSGSTNYNPSLKSRVTISVDTSMNQFSLKLSSVTAADTAVYYCARDIPPTWYFDLWGRGTLVTVSS chain 2: SYELTQPPSVSVAPGKTARITCGGNNIGSKNVHWYQQKPGQAPVLVVYDDSDRPSGIPERFSGSNSGNTATLTISRVEAGDEAGYYCQVWDSTSDHLFWVFGGGTKLTVL | 3.22
C1045 (protein) chain 1: QVQLQESGPGLVKPSQTLSLTCTVSGDSISSGNYYWSWIRQPAGKGLEWIGHIYTSGSPNYKPSLKSRVTISLDTSKNQFSLKLTSVTAADTAMYYCARDIPSTWYFDLWGRGTLVTVSS chain 2: SYELTQPPSVSVAPGKTARIPCGGTDIGSKNVHWYQQKPGQAPVLAVYDDSDRPSGIPERFSGSNSGSTATLTISRVEAGDEADYYCQVWDSSGDRLSWVFGGGTKLTVL | 2.57
C1046 (protein) chain 1: EVQLVQSGAEVKKPGESLKISCKGSGYSFTSYWIGWVRQMPGKGLEWMGIIYPGDSDTRYSPSFQGQVTISADKSISTAYLQWSSLKASDTAMYYCARMVTSGTYYYDNSGYSSSGPFDYWGQGTLVTVSS chain 2: DIQLTQSPSSLSASVGDRVTITCRASQGISSALAWYQQKPGKAPKLLIYDASSLESGVPSRFSGSGSGTDFTLTISSLQPEDFATYYCQQFNNFGPGTKVDIK | 3.8
C1047 (protein) chain 1: EVQLVQSGAEVKKPGESLKISCKGSGYSFISYWIVWVRQMPGKGLEWIGIIYPGDSDTIYSPSFQGQVTLSADKSISTAYLQWSSLKASDTAIYYCAKMVTSGTSYYETRGYASSGPFDNWGQGTLVTVSS chain 2: DIQLTQSPSSLSASVGDRVTITCRASQGISSALAWYQQKPGKAPKLLIYDASSLESGVPSRFSGSGSGTDFTLTISSLQPEDFATYYCQQSDNFGPGTKVDI | 2.46
C853 (protein) chain 1: QVQLQESGPGLVKASQTLSLTCTVSGGSFRSGGYYYNWIRQHPGKGLEWIGYIFYTGVTYYNPSLKSRVSISVDTSKNQLSLNLTSVTAADTAVYYCARGSYSDYNGGWDYWGRGTLVTVS chain 2: QSALTQPPSASGSPGQSVTISCIGTSSDVGGYNYVSWYQHHPGKAPKLIIYEVSKRPSGVPDRFSGSKSGNTASLTVSGLQADDEADYYCSSYAGSNNWVFGGGTKLTV | 2.3
C1048 (protein) chain 1: EVQLVQSGAEVKKPGESLKISCKVSGYSFISHWIGWVRQMPGKGLEWMGIIYPGDSDTRYSPSFQGQVTISADKSISTAYLQWSSLKASDTAMYYCARRGASWELDYWGQGTLVTV chain 2: QSVLTQPPSASGTPGQRVTISCSGSSSNIGSNPVSWYQQLPGPAPQLLIYGNDQRPSGVPDRFSGSKSGTSASLAISGLQSEDEADYYCAAWDDSLNGYVFGTGTKVTVL | 2.41
C1049 (protein) chain 1: EVQLVQSGAEVKKPGESLKISCKSSGYSFISHWIGWVRQMPGKGLEWMGIIWPGDSDTRYSPSFQGQVTISVDKSITTVYLQWSSLKAADTAMYYCARRGSSWEVDYWGQGTLVTVSS chain 2: not shown | 2.81
C1050 (protein) chain 1: EVQLVESGGGLVQPGRSLRLSCAASGFTFDDYGMHWVRQAPGKGLEWVSGISWNGDSIGYADSVKGRFTISRDNAKTSLYLQMNRLRAEDTALYYCAKAASRSTRIGGAFDIWGQGTMVTVSS chain 2: QSALTQPASVSGSPGQSITISCTGTSSDVGGYNLVSWYQQHPGKAPKLMIYEGSKRPSGVSNRFSGSKSGNTASLTISGLQAEDEADYYCCSYAYSFTNVFGTGTKVTV | 2.78
C1051 (protein) chain 1: EVQLVESGGGLVQPGRSLRLSCVASGFTFDDYGLHWVRQAPGKGLEWVSGISWNSDSIGYADSVKGRFAISRDNARTSLYLQMNRLRAEDTALYYCAKAASRSTRIGGAFDIWGQGTMVTVSS chain 2: QSALTQPASVSGSPGQSITISCTGTSSDVGGYNLVSWYQQYPGKAPKLMIYEDSKRPSGVSHRFSGSKSGNTASLTISGLQAEDEADYYCCSYAFSFTNVFGTGTKVTV | 1.4
C1052 (protein) chain 1: QVQLVQSGAEVKKPGASVKVSCKVSGYTLSELSMHWVRQAPGEGLEWLGGFDPEDGETINAQKFQGRVTMTEDRSTDTAYMELSSLRSEDTAVYYCATRGRYCSSGNCYYHHWGQGTLVTVSS chain 2: DIQMTQSPSTLSASVGDRVIITCRASQNIHNWLAWYQQKPGKAPKLLIYKASSLESGVPSRFSGSGSGTEFTLTISSLQPDDFATYFCQQYHSYSWTFGQGTKVEIK | 2.64
C1053 (protein) chain 1: EVQLLESGGGLVQPGGSLRLSCAASGFTFSSYAMNWVRQAPGKGLEWVSAISGSGGGTYYADSVKGRFTISRDNSKNTLYLQMDSLRAEDTAVYYCAKDVPIEQQLVPTFDYWGQGALVTVSS chain 2: DIQMTQSPSSLSASVGDRVTITCRASQSISRYLNWYQQKPGKAPKLLIYGASSLQSGVPSRFSGSGSGTDFTLTISSLQPEDFATYWCQQSYSTLSITFGQGTRLEIK | 4.13
C1054 (protein) chain 1: EVQLLESGGGLVQPGGSLRLSCVVSGFTFSSYAMNWVRQAPGKGLEWVSVIGGSGDGRYYADSVKGRFTISRDNSKNTLYLQMNSLRGDDTAVYYCARDVPVEQQLVPTFDYWGQGTLVTVSS chain 2: DIQMTQSPSSLSASVGDRVTITCRASQSISRYLNWYQQKPGKAPKLLIYAASSLQSGVPSRFSGSGSGTEFTLTISSLQPEDFATYYCQQSYSTLSITFGQGTRLEIK | 1.64
C1057 (protein) chain 1: QVQLVQSGAEVKKPGSSVKVSCKASGGTFTTYIISWVRQAPGQGLEWMGGISPMLGTANYAQKFQGGVTITADESTTTAYMEMSGLRSEDTAVYYCARAHMYCSDGSCYRQSGYFDSWGQGTLVTVSS chain 2: QSALTQPRSVSGSPGQSVTITCTGTSSNVGGYKYVSWFQQHPGKAPKFLIYDVSERSSGVPDRFSGSKSGNTASLTISGLQAEDEADYYCCSYAGKYTVVFGGGTRLTV | 2.12
C854 (protein) chain 1: EVQLVESGGGLIQPGGSLRLSCAASGITVSSNYMNWVRQAPGKGLEWVSVLYAGGSTFYADSVKGRFTISRDDSKNTLYLQMDSLRAEDTAVYYCARDLSSSGGFDYWGQGTLVTVSS chain 2: EIVLTQSPGTLSLSPGERATLSCRASQSVSSSYLAWYQQKPGQAPRLLIYGASSRATGIPDRFSGRGSGTDFTLTISRLEPEDFAVYYCQQYGSLYTFGQGTKLEIK | 2.57
C1058 (protein) chain 1: EVQLVESGGGLVQPGGSLRLSCAASGIIVSSNYMNWVRQVPGKGLEWVSVLYSGGSTFYADSVRGRFTISRDNSKNTLFLQMNSLRPEDTAVYYCARDFREGAFDIWGQGTMVTV chain 2: DIQLTQSPSFLSASVGDRVTITCRASQGISSYLAWYQQKPGKAPNLLIYAASTLQSGVPSRFSGSGSGTDFTLTISSLQPEDFATYYCQQLNSYSPLFGQGTRLEIK | 2.13

Source: the supplement of paper PMC8277577
